According to article PMC4336329 (PLoS ONE, 2015):
The campaign covered roughly 310,000 compounds. About 2,200 (0.71%) showed an effect of 50% or more. Effects have a minus sign here. Some of the results follow.

Each compound was assayed against human ether-à-go-go-related gene (hERG) potassium channel (human, UniProt Q12809) (assay: primary screen, population patch clamp on CHO cells stably expressing hERG).
human ether-à-go-go-related gene (hERG) potassium channel, sequence (Q12809 whole entry, looked up): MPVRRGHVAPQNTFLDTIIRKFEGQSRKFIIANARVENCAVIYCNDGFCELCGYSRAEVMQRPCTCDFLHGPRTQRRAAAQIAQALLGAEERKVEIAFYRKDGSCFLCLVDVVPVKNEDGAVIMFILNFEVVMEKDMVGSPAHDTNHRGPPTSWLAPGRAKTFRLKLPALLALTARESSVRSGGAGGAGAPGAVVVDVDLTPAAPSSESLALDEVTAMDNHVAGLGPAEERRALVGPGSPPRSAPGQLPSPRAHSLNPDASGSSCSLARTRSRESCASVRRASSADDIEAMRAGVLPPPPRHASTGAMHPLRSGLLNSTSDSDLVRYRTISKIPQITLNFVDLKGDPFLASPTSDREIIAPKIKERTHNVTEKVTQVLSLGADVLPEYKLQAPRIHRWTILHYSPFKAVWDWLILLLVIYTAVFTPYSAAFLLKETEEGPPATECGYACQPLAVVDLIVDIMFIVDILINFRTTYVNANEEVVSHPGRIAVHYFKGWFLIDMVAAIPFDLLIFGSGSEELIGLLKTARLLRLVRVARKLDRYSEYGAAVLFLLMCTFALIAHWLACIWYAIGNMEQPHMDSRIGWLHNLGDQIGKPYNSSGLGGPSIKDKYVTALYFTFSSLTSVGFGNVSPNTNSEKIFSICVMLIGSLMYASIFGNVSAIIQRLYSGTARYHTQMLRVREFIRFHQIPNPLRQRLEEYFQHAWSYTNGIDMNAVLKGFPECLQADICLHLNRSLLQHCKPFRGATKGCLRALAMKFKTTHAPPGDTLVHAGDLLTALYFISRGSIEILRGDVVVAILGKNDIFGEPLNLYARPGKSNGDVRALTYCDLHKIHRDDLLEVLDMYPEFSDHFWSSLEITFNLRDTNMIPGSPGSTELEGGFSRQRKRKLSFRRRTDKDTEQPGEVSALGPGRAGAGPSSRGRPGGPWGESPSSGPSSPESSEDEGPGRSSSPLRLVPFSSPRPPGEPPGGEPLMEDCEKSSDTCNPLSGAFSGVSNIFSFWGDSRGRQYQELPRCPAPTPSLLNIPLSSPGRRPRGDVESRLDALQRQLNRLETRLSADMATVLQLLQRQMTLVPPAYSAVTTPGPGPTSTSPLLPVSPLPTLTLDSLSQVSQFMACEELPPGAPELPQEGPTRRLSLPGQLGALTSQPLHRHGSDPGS

| Compound | hERG current change (%, negative = inhibition) at 1uM [%] |
| --- | --- |
| COc1ccc(C(=O)Nc2ccccc2)cc1NC(=O)c1ccc([N+](=O)[O-])cc1 | -24.6 |
| COc1cc(NC(=O)CN2CCN(CC(=O)Nc3ccccc3OC)CC2)cc(OC)c1 | 5.15 |
| COc1ccc(N(C(=O)Cc2cccs2)C2C=CS(=O)(=O)C2)cc1 (stereo not drawn) | -0.253 |
| O=C(C[n+]1cccc(/C=N/O)c1)N1CCCCCC1.[Cl-] | 11.9 |
| O=C(C1=C(O)C(=O)N(CCN2CCOCC2)C1c1ccc(F)cc1)c1cccs1 (stereo not drawn) | 15.7 |
| CCOC(=O)C(NC(C)=O)(OCc1ccccc1)C(F)(F)F (stereo not drawn) | 4.16 |
| CN(CCO)c1cc(N2CCC3(CC2)OCCO3)c2nonc2c1[N+](=O)[O-] | 17.8 |
| CC(C)(C)NC(=O)C(c1ccc(F)cc1)N(Cc1ccco1)C(=O)CCC(=O)Nc1ccccn1 (stereo not drawn) | -5.78 |
| O=C(CCc1ccccc1)N=C1SC2CS(=O)(=O)CC2N1Cc1ccc(F)cc1 (stereo not drawn) | 8.66 |
| CCc1nc2ccccc2n1CC1CC1(Cl)Cl (stereo not drawn) | -14.5 |
| COc1ccc(/C=N/NC(=O)c2[nH]c3ccc(Br)cc3c2-c2ccccc2)cc1 | 12.1 |
| O=C1N(c2ccc(Cl)cc2)C(c2ccc(Cl)cc2)N2CCCN12 (stereo not drawn) | 2.46 |
| Oc1[nH]c2ccccc2c1C=NCC1CCCO1 (stereo not drawn) | 16.2 |
| COCCN1C(=O)C(=O)/C(=C(/O)c2ccc(S(=O)(=O)N3CCOCC3)cc2)C1c1ccc(O)cc1 (stereo not drawn) | 13.2 |
| CCC(C)N1C(=O)N(C)C2NC(=O)NC21 (stereo not drawn) | 11.2 |
| COc1cccc(-c2cc(C(=O)N3CCN(c4ccccc4OC)CC3)no2)c1 | 9.27 |
| COc1ccc(-c2noc(N3CCC(C(=O)NCCCN4CCCC(C)C4)CC3)n2)cc1 (stereo not drawn) | -9.36 |
| CC(C)(O)C#Cc1ccc(CN2CCN(Cc3ccccc3)C(CCO)C2)s1 (stereo not drawn) | 8.04 |
| COC(=O)c1ccc(NC(=O)Nc2ccc(F)c(Cl)c2)cc1 | 14 |
| O=[N+]([O-])c1cc(C(F)(F)F)ccc1Sc1ccccn1 | 0.0303 |
| Cc1nnc(SCC(=O)N2c3ccccc3C(C)(c3ccc(Cl)cc3)CC2(C)C)s1 (stereo not drawn) | 3.42 |
| COc1ccc(NC(=O)CN(C)S(=O)(=O)c2ccc3c(c2)CC(C)N3C(C)=O)c(OC)c1 (stereo not drawn) | 10.3 |
| COCCOC(=O)C1=C(C)N=C2SCCC(=O)N2C1c1ccc(C(=O)OC)cc1 (stereo not drawn) | 14.9 |
| COc1ccc(-c2cc(C(=O)N/N=C/c3cc(OC)c(OC)cc3OC)c3ccccc3n2)cc1 | 15 |
| COc1cc(C)nc(OCCNS(=O)(=O)c2cc(C)ccc2C)n1 | 6.1 |
| CCN1C(=O)/C(=C/c2ccc(OCc3ccc(C(=O)O)cc3)c(Cl)c2)NC1=S | 14 |
| COc1ccc(Nc2ccccc2N)cc1.Cl | 8.84 |

| Compound | hERG current change (%, negative = inhibition) at 1uM [%] |
| --- | --- |
| Cc1cc(NC(=O)CSc2nc3c(cc2C#N)CCC3)no1 | 20.6 |
| CC(=O)C[C@H](O)CC(=O)[C@H]1OC(=O)[C@H](C)C/C=C\Cc2ccccc21 | 10.6 |
| CC(C)(C)OC(=O)N1Cc2ccccc2C[C@H]1C(=O)NCC(=O)NC1CCCC1 | 7.91 |
| CC(C)(C)c1ccc(C(=O)NCC(=O)OCC(=O)c2ccc3c(c2)-c2ccccc2C3)cc1 | 7.71 |
| COc1cc(OC)cc(C(=O)N[C@H](C(=O)OCC(=O)Nc2ccc(F)c(F)c2F)C(C)C)c1 | -12.9 |
| Cc1ccc(-c2nc(CCNC(=O)c3ccco3)cs2)cc1 | 11 |
| CN(C)c1ccc(CNC(=O)CN(C)S(=O)(=O)c2cccc3cccnc23)cc1 | 1.08 |
| CC(C(=O)Nc1ccccc1Cl)N(c1ccccc1)S(C)(=O)=O (stereo not drawn) | 18.5 |
| Nc1nonc1-n1nnc(C(=O)N/N=C/c2ccc(Cl)cc2Cl)c1CN1CCCCC1 | 12.2 |
| CC(C)CCOc1ccc(C2(C)NC(=O)N(CN3CCOCC3)C2=O)cc1 (stereo not drawn) | 7.5 |
| Cc1oc(-c2ccc(Cl)cc2)nc1CS(=O)CC(=O)NCCCN(C)C1CCCCC1 (stereo not drawn) | -12 |
| Cc1cccc(CN(C(=S)Nc2c(C)cccc2C)c2cccnc2)c1 | 6.25 |
| CC(C)(C)C(=O)NC1(C(F)(F)F)NC(=O)N(CCc2ccccc2)C1=O (stereo not drawn) | 20.5 |
| COc1ccc(Cn2nnnc2C(c2cc3ccc(OC)cc3[nH]c2=O)N2CCCCCC2)cc1 (stereo not drawn) | -8.91 |
| Cc1cc(NC(=O)c2noc3c2CCCCC3)no1 | 10.8 |
| CCn1ncc(Br)c1C(=O)Nc1ccccc1OC | 10.4 |
| O=C(NCCO)c1ccc2c3n(nc2c1)-c1ccccc1CO3 | 15.2 |
| CC(C)(C)NC(=O)CSc1nncn1NCc1c(Cl)cccc1Cl | -6.69 |
| Cc1cc(C)cc(C(=O)N(Cc2ccco2)c2c(N)n(Cc3ccccc3)c(=O)[nH]c2=O)c1 | 17.3 |
| Cc1ccccc1-c1n[nH]c(=S)n1/N=C/C=C/c1ccco1 | 1.21 |
| COc1cc([N+](=O)[O-])ccc1NC(=O)CN1CCCC1 | 9.93 |
| COc1cc(OC)c(OC)cc1/C=N/NC(=O)c1cccc(S(=O)(=O)N2CCOCC2)c1 | 6.78 |
| COc1cc(/C=N\NC(=O)CNC(=O)c2cccc([N+](=O)[O-])c2)ccc1O | 13.1 |
| O=C(CCN1C(=O)/C(=C/c2ccc3c(c2)OCO3)SC1=S)Nc1ccccc1 | 12.4 |
| N#Cc1c(N)sc(=S)c2c1CCCC2 | 2.13 |
| N#CCSc1nc2c(c(=O)n1Cc1ccccc1)C1(CCCC1)Cc1ccccc1-2 | -2.55 |
| Cc1ccc(S(=O)(=O)Nn2c(C)nnc2-n2nc(C)cc2C)cc1 | 1.05 |
